This is one part of the list. Cut-off read from the data, not from the text of the source: active = 3.2 or more and inactive = the rest. The signal is at background level for most entries.
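Note: displayed peptides selected on beads carrying the immobilized SH2 domain, with library peptides lacking any tyrosine serving as negative controls.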

One experiment has as its target SHP2 C-SH2 domain E139D. Kind of experiment: enrichment score (SH2-bound / input frequency) (ratio); bacterial display of known human phosphotyrosine sites (pTyr-Var adds point mutants) read by sequencing; higher = stronger binding; tyrosines were phosphorylated by kinases first. The note with it: peptide library: pTyr-Var.
Regarding ADKSAYLMGVN [MYH7_Y386_L390V], the enrichment score is inactive: 0.543.
Still for that read-out and setting: in the case of YGGRDYSLDEF [MYOF_Y1705] it was inactive: 0.96; in that of SSMIDYNPLEK [MYOC_Y479], inactive: 0.576; in that of GGSDCYGSLRP [MYLK_Y846_R845C], inactive: 0.718.
The same measure, in the same setting: in the case of ASKEPYYVHCI [MYO1D_Y585_R588H] it was inactive: 0.76.
On the same count and under the same terms, then FSLIHYAGIVD [MYH7_Y582], with active: 4.25.
For FSLIHYARIVD [MYH7_Y582_G584R], the enrichment score is active: 5.47.
Take ADKSVYLMGLN [MYH7_Y386_A385V]: the enrichment score is inactive: 0.853.
Same read-out and setting: then IAINKYEVSLI [MYO7A_Y2136_G2137E], with inactive: 1.42; and PGAPAYRVLME [MYO5A_Y1245], with inactive: 0.763; and GGSDRYGSLRP [MYLK_Y846], with inactive: 0.621.
Still for that read-out and setting: then KMGNEYVTKGQ [MYH7_Y410_V406M], with inactive: 0.511.
Regarding WPQKLYNNFVN [MYO5C_Y526_L522P], the enrichment score is inactive: 0.895.
The same measure, in the same setting: then ADKSAYLMGLN [MYH7_Y386], with inactive: 0.712; and NFDRIYIYHLR [MYOF_Y1137_V1136I], with inactive: 1.97; and IRRQGYSHRIL [MYO3B_Y993], with inactive: 0.265.
Take EVDELYREAPI [MYL12B_Y143]: the enrichment score is inactive: 0.636.
On the same count and under the same terms, then FSLIHYAGIVV [MYH7_Y582_D587V], with inactive: 2.47.

In the next experiment the target is SHP2 C-SH2 domain wild-type. The experiment is described as above. The note with it: peptide library: pTyr-Var.
In the case of ADKSAYLMGVN [MYH7_Y386_L390V], the enrichment score is inactive: 0.585.
As to YGGRDYSLDEF [MYOF_Y1705], the enrichment score was inactive: 0.81.
Same read-out and setting: then SSMIDYNPLEK [MYOC_Y479], with inactive: 0.727; and GGSDCYGSLRP [MYLK_Y846_R845C], with inactive: 0.645.
Same read-out and setting: in the case of ASKEPYYVHCI [MYO1D_Y585_R588H] it was inactive: 0.897; in that of FSLIHYAGIVD [MYH7_Y582], active: 7.18.
Turning to FSLIHYARIVD [MYH7_Y582_G584R], the enrichment score is active: 5.8.
Still for that read-out and setting: in the case of ADKSVYLMGLN [MYH7_Y386_A385V] it was inactive: 1.31.
On the same count and under the same terms, in the case of IAINKYEVSLI [MYO7A_Y2136_G2137E] it was inactive: 1.08; in that of PGAPAYRVLME [MYO5A_Y1245], inactive: 0.734.
On the same count and under the same terms, then GGSDRYGSLRP [MYLK_Y846], with inactive: 0.657; and KMGNEYVTKGQ [MYH7_Y410_V406M], with inactive: 0.635; and WPQKLYNNFVN [MYO5C_Y526_L522P], with inactive: 1.23.
With ADKSAYLMGLN [MYH7_Y386], the enrichment score is inactive: 0.8.
Consider NFDRIYIYHLR [MYOF_Y1137_V1136I], for which the enrichment score was inactive: 3.09.
With IRRQGYSHRIL [MYO3B_Y993], the enrichment score was inactive: 0.278.
On the same count and under the same terms, then EVDELYREAPI [MYL12B_Y143], with inactive: 0.715.
Turning to FSLIHYAGIVV [MYH7_Y582_D587V], the enrichment score was active: 4.

The target in a further experiment is SHP2 N-SH2 domain L43F. Described as above. Conditions: peptide library: pTyr-Var.
Turning to ADKSAYLMGVN [MYH7_Y386_L390V], the enrichment score is inactive: 0.512.
Take YGGRDYSLDEF [MYOF_Y1705]: the enrichment score is inactive: 0.829.
As to SSMIDYNPLEK [MYOC_Y479], the enrichment score is inactive: 0.548.
The same measure, in the same setting: then GGSDCYGSLRP [MYLK_Y846_R845C], with inactive: 0.752; and ASKEPYYVHCI [MYO1D_Y585_R588H], with inactive: 0.93.
The same measure, in the same setting: in the case of FSLIHYAGIVD [MYH7_Y582] it was inactive: 3.13; in that of FSLIHYARIVD [MYH7_Y582_G584R], inactive: 2.49; in that of ADKSVYLMGLN [MYH7_Y386_A385V], inactive: 0.79.
In the case of IAINKYEVSLI [MYO7A_Y2136_G2137E], the enrichment score was inactive: 1.29.
PGAPAYRVLME [MYO5A_Y1245]: the enrichment score is inactive: 0.626.
For the molecule GGSDRYGSLRP [MYLK_Y846], the enrichment score was inactive: 0.569.
Regarding KMGNEYVTKGQ [MYH7_Y410_V406M], the enrichment score is inactive: 0.543.
As to WPQKLYNNFVN [MYO5C_Y526_L522P], the enrichment score was inactive: 0.853.
Same read-out and setting: in the case of ADKSAYLMGLN [MYH7_Y386] it was inactive: 0.502; in that of NFDRIYIYHLR [MYOF_Y1137_V1136I], active: 4.2; in that of IRRQGYSHRIL [MYO3B_Y993], inactive: 0.245.
EVDELYREAPI [MYL12B_Y143]: the enrichment score is inactive: 0.67.
Same read-out and setting: then FSLIHYAGIVV [MYH7_Y582_D587V], with inactive: 2.84.

The target of another experiment is SHP2 N-SH2 domain T42A. Described as above. Conditions: peptide library: pTyr-Var.
Turning to ADKSAYLMGVN [MYH7_Y386_L390V], the enrichment score is inactive: 0.7.
Consider YGGRDYSLDEF [MYOF_Y1705], for which the enrichment score was inactive: 0.632.
On the same count and under the same terms, in the case of SSMIDYNPLEK [MYOC_Y479] it was inactive: 0.622; in that of GGSDCYGSLRP [MYLK_Y846_R845C], inactive: 0.487; in that of ASKEPYYVHCI [MYO1D_Y585_R588H], inactive: 0.845.
The same measure, in the same setting: in the case of FSLIHYAGIVD [MYH7_Y582] it was active: 6.26; in that of FSLIHYARIVD [MYH7_Y582_G584R], active: 4.58.
The same measure, in the same setting: in the case of ADKSVYLMGLN [MYH7_Y386_A385V] it was inactive: 0.972.
For the molecule IAINKYEVSLI [MYO7A_Y2136_G2137E], the enrichment score is inactive: 1.25.
As for PGAPAYRVLME [MYO5A_Y1245], the enrichment score is inactive: 0.996.
As for GGSDRYGSLRP [MYLK_Y846], the enrichment score was inactive: 0.677.
Consider KMGNEYVTKGQ [MYH7_Y410_V406M], for which the enrichment score was inactive: 0.462.
On the same count and under the same terms, then WPQKLYNNFVN [MYO5C_Y526_L522P], with inactive: 1.07.
On the same count and under the same terms, in the case of ADKSAYLMGLN [MYH7_Y386] it was inactive: 0.643; in that of NFDRIYIYHLR [MYOF_Y1137_V1136I], inactive: 2.13; in that of IRRQGYSHRIL [MYO3B_Y993], inactive: 0.291.
The same measure, in the same setting: then EVDELYREAPI [MYL12B_Y143], with inactive: 0.607; and FSLIHYAGIVV [MYH7_Y582_D587V], with active: 5.27.

A further experiment deals with SHP2 N-SH2 domain T52S. The description is as above. Conditions: peptide library: pTyr-Var.
Regarding ADKSAYLMGVN [MYH7_Y386_L390V], the enrichment score is inactive: 0.67.
For YGGRDYSLDEF [MYOF_Y1705], the enrichment score is inactive: 0.75.
Same read-out and setting: then SSMIDYNPLEK [MYOC_Y479], with inactive: 0.567; and GGSDCYGSLRP [MYLK_Y846_R845C], with inactive: 0.551; and ASKEPYYVHCI [MYO1D_Y585_R588H], with inactive: 0.831.
The same measure, in the same setting: then FSLIHYAGIVD [MYH7_Y582], with inactive: 2.52; and FSLIHYARIVD [MYH7_Y582_G584R], with inactive: 2.75.
The same measure, in the same setting: in the case of ADKSVYLMGLN [MYH7_Y386_A385V] it was inactive: 0.718; in that of IAINKYEVSLI [MYO7A_Y2136_G2137E], inactive: 1.13.
Take PGAPAYRVLME [MYO5A_Y1245]: the enrichment score is inactive: 0.688.
On the same count and under the same terms, in the case of GGSDRYGSLRP [MYLK_Y846] it was inactive: 0.564.
Same read-out and setting: in the case of KMGNEYVTKGQ [MYH7_Y410_V406M] it was inactive: 0.494.
In the case of WPQKLYNNFVN [MYO5C_Y526_L522P], the enrichment score is inactive: 1.2.
Same read-out and setting: then ADKSAYLMGLN [MYH7_Y386], with inactive: 0.634; and NFDRIYIYHLR [MYOF_Y1137_V1136I], with active: 5.2; and IRRQGYSHRIL [MYO3B_Y993], with inactive: 0.284.
The same measure, in the same setting: in the case of EVDELYREAPI [MYL12B_Y143] it was inactive: 0.73.
As for FSLIHYAGIVV [MYH7_Y582_D587V], the enrichment score was active: 3.75.

A further experiment deals with SHP2 N-SH2 domain wild-type. The experiment is described as above. Conditions: peptide library: pTyr-Var.
With ADKSAYLMGVN [MYH7_Y386_L390V], the enrichment score was inactive: 0.808.
On the same count and under the same terms, then YGGRDYSLDEF [MYOF_Y1705], with inactive: 0.755; and SSMIDYNPLEK [MYOC_Y479], with inactive: 0.554.
Same read-out and setting: then GGSDCYGSLRP [MYLK_Y846_R845C], with inactive: 0.88; and ASKEPYYVHCI [MYO1D_Y585_R588H], with inactive: 0.968; and FSLIHYAGIVD [MYH7_Y582], with inactive: 1.97.
Turning to FSLIHYARIVD [MYH7_Y582_G584R], the enrichment score is inactive: 2.62.
Same read-out and setting: then ADKSVYLMGLN [MYH7_Y386_A385V], with inactive: 0.833; and IAINKYEVSLI [MYO7A_Y2136_G2137E], with inactive: 1.35.
In the case of PGAPAYRVLME [MYO5A_Y1245], the enrichment score was inactive: 0.767.
As to GGSDRYGSLRP [MYLK_Y846], the enrichment score is inactive: 0.824.
Same read-out and setting: in the case of KMGNEYVTKGQ [MYH7_Y410_V406M] it was inactive: 0.509; in that of WPQKLYNNFVN [MYO5C_Y526_L522P], inactive: 1.01.
ADKSAYLMGLN [MYH7_Y386]: the enrichment score was inactive: 0.719.
NFDRIYIYHLR [MYOF_Y1137_V1136I]: the enrichment score is inactive: 2.49.
Turning to IRRQGYSHRIL [MYO3B_Y993], the enrichment score was inactive: 0.351.
Regarding EVDELYREAPI [MYL12B_Y143], the enrichment score is inactive: 0.773.
On the same count and under the same terms, in the case of FSLIHYAGIVV [MYH7_Y582_D587V] it was inactive: 2.52.

The values are drawn from the supplement of paper PMC10369915.
